These are yes or no findings as the source states them, for the method shown. Binding seen in cells or lysates may run through a third protein. Some results given as binding are weak or reduced against the parent protein; the word gives no strength.
T1: MIER2 (UniProt Q8N344)
T1 sequence: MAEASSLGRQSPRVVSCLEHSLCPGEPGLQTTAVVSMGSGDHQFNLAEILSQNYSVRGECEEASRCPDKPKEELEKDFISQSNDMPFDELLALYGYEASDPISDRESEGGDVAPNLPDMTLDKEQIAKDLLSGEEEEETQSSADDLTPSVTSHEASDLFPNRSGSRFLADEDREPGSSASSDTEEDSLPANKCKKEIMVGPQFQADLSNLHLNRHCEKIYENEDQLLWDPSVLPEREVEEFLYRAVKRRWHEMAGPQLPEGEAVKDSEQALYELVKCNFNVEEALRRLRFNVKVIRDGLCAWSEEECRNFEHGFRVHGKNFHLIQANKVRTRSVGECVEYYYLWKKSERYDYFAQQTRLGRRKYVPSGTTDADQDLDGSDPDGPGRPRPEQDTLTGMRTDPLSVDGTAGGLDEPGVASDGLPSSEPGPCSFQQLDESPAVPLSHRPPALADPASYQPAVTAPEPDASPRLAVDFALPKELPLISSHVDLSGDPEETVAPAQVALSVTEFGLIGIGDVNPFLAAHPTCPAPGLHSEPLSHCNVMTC

Chains of the proteins cited; added tags and fusions are not shown. Lines headed by an entry give the natural chain unless they say otherwise; changes in a name come on top. A line that says so, or that is headed by a name, gives the form on record, which may keep a tag or linker.
UniProt Q7Z3K6: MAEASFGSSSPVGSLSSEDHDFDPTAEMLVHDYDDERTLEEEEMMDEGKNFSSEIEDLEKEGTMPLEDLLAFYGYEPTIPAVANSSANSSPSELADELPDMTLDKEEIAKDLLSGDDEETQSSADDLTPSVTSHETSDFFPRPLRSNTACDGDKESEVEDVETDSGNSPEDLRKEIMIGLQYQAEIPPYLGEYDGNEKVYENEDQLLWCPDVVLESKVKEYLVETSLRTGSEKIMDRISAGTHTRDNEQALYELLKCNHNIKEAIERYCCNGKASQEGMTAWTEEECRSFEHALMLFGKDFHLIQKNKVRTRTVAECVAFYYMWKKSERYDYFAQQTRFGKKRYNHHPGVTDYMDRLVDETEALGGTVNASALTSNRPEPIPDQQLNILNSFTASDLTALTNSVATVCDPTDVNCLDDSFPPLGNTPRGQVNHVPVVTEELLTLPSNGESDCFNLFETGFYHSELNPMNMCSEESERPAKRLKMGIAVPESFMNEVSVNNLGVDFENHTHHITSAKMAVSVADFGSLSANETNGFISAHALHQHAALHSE
MIER3 isoform 3 (Q7Z3K6, form named): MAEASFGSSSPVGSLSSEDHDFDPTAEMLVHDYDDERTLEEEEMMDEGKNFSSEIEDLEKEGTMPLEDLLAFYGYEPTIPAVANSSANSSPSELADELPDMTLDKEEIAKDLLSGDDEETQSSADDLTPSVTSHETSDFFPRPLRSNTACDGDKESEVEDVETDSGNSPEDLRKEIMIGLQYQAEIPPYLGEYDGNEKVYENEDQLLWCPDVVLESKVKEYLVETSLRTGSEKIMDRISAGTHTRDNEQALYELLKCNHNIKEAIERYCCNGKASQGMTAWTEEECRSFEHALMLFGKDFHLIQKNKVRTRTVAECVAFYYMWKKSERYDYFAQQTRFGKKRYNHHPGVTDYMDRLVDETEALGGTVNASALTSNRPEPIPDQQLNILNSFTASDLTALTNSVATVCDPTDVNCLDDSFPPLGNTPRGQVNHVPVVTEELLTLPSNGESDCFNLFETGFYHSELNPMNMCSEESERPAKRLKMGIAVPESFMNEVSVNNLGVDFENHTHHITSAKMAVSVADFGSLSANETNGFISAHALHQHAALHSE
UniProt Q13330: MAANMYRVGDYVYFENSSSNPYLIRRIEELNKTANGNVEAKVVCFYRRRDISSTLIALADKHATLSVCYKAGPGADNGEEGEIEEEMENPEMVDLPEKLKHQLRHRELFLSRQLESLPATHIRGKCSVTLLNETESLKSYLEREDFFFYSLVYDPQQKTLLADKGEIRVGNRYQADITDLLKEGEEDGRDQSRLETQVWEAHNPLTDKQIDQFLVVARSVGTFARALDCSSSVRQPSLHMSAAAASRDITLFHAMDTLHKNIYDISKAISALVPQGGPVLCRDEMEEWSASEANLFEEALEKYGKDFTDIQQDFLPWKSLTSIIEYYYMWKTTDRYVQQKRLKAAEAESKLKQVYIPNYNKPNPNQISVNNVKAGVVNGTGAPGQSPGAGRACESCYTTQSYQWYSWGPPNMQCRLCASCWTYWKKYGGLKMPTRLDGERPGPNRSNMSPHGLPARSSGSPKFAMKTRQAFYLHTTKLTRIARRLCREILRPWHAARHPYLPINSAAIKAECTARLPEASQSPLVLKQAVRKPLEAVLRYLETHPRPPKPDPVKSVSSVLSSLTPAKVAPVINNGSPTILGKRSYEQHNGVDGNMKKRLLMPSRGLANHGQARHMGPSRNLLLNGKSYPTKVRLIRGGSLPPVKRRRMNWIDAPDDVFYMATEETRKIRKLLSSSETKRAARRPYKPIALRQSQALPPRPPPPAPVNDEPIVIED
UniProt Q13547: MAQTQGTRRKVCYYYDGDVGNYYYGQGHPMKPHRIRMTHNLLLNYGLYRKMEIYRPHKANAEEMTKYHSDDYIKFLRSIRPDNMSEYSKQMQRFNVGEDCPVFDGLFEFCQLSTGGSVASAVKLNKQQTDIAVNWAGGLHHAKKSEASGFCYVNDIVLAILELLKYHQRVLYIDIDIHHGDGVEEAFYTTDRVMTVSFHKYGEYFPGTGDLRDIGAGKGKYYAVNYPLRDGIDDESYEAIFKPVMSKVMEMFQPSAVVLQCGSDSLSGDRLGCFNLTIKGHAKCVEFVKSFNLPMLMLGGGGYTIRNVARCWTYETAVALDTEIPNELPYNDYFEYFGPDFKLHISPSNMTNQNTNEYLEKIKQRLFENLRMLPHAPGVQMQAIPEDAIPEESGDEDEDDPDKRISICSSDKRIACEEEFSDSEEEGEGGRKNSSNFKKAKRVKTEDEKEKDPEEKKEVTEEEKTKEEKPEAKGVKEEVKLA
UniProt Q92769: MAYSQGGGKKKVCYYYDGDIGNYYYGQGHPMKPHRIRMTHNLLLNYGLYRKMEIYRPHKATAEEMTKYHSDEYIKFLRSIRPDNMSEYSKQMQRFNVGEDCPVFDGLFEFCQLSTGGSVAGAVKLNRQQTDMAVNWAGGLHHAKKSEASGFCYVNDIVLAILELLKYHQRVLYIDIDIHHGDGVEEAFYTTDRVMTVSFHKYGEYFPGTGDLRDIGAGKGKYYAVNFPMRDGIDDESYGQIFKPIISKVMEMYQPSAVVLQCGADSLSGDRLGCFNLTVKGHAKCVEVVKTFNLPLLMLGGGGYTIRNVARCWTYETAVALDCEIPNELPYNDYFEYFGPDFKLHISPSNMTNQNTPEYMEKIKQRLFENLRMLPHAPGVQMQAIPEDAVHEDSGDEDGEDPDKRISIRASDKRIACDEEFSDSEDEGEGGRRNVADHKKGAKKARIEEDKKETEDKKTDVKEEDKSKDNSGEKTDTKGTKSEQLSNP

T2: MIER2 containing a point mutation 228W→A in the ELM2 domain (UniProt Q8N344)
T2 sequence: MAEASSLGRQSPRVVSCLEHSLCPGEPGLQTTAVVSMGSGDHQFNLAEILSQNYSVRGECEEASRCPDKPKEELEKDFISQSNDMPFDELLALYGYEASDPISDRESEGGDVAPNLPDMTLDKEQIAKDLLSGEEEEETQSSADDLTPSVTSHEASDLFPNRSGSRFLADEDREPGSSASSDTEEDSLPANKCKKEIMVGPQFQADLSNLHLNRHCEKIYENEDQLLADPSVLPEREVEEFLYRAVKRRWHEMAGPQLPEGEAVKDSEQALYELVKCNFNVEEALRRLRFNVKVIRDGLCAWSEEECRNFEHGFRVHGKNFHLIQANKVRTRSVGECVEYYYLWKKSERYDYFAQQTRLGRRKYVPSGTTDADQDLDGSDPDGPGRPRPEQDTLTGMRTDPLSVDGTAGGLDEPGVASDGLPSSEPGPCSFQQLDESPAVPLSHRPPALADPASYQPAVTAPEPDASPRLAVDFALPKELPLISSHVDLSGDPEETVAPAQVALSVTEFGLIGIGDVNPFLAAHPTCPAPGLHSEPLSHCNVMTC

T3: MIER2-Δ1 (UniProt Q8N344)
T3 sequence: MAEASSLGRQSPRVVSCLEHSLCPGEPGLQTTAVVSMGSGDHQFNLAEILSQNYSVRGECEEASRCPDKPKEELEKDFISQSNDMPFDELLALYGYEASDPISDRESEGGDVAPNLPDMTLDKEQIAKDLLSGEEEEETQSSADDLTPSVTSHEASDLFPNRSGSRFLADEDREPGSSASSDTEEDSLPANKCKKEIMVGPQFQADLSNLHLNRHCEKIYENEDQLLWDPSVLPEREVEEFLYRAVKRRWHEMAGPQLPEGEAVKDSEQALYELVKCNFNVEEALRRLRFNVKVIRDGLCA

T4: MIER2-Δ2 (UniProt Q8N344)
T4 sequence: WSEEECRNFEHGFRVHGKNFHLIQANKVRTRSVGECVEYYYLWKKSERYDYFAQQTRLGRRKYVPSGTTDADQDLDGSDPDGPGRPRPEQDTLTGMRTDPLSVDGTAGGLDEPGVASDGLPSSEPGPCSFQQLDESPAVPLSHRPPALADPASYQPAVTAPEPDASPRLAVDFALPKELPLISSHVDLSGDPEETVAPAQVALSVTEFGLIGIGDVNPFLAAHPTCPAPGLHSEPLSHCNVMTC

T5: MIER2-Δ3 (UniProt Q8N344)
T5 sequence: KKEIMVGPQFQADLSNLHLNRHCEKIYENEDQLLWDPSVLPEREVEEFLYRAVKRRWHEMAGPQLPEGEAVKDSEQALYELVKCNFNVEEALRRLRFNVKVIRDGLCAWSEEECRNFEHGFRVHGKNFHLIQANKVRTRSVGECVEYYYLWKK

T6: MIER2-Δ4 (UniProt Q8N344)
T6 sequence: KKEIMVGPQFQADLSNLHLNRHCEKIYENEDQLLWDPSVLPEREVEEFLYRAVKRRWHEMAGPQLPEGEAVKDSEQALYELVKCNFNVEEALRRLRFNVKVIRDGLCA


Assays:
[1] = target: T1, MIER2; assay: co-IP; HeLa cells transfected with the myc-tagged protein; IP with 9E10 anti-myc; endogenous HDAC1 and HDAC2 by Western
[2] = target: T1, MIER2; assay: co-IP; MCF7 cells transfected (electroporation) with the myc-tagged protein; IP with 9E10 anti-myc; endogenous HDAC1 and HDAC2 by Western; band densitometry
[3] = target: T2, MIER2 containing a point mutation 228W→A in the ELM2 domain; assay: co-IP; HEK293 cells transfected with the myc-tagged protein; lysis in 1% Triton X-100, 150 mM NaCl, 20 mM Tris-Cl pH 7.5, 1 mM EDTA; IP with 9E10 anti-myc overnight at 4°C; endogenous HDAC1 and HDAC2 by Western; band densitometry (HDAC:MIER ratio); also with or without 12.5 μM Ins(1,4,5,6)P4 during the IP (no substantial difference)
[4] = target: T3, MIER2-Δ1; assay: as above
[5] = target: T4, MIER2-Δ2; assay: as above
[6] = target: T5, MIER2-Δ3; assay: as above
[7] = target: T6, MIER2-Δ4; assay: as above
[8] = target: MIER3 isoform 3 (UniProt Q7Z3K6); assay: as above
[9] = target: MTA1 (UniProt Q13330); assay: as above
[10] = target: T1, MIER2; assay: co-IP; HEK293 cells co-transfected with a myc-tagged and a flag-tagged protein; lysis in 1% Triton X-100, 150 mM NaCl, 20 mM Tris-Cl pH 7.5, 1 mM EDTA; IP with 9E10 anti-myc overnight at 4°C; Western with anti-flag
[11] = target: MIER3 isoform 1 (UniProt Q7Z3K6); assay: as above

Molecule | binding [1] | binding [2] | binding [3] | binding [4] | binding [5] | binding [6] | binding [7] | binding [8] | binding [9] | binding [10] | binding [11]
HDAC1 (from UniProt Q13547 1-482) (enzyme) | binds | binds | no binding | binds | no binding | binds | binds | binds weakly | binds |  | 
MIER3 isoform 1 (from UniProt Q7Z3K6-1 1-550) |  |  |  |  |  |  |  |  |  | no binding | no binding

Other lines, results leading:

binding [1] | binding [2] | binding [3] | binding [4] | binding [5] | binding [6] | binding [7] | binding [8] | binding [9] | binding [10] | binding [11] | Molecule
 |  | no binding | binds | no binding | binds | binds | binds weakly | binds |  |  | HDAC2 (from UniProt Q92769 1-488) (enzyme)
 |  |  |  |  |  |  |  |  | no binding | no binding | MIER2 (protein, UniProt Q8N344 1-545) MAEASSLGRQSPRVVSCLEHSLCPGEPGLQTTAVVSMGSGDHQFNLAEILSQNYSVRGECEEASRCPDKPKEELEKDFISQSNDMPFDELLALYGYEASDPISDRESEGGDVAPNLPDMTLDKEQIAKDLLSGEEEEETQSSADDLTPSVTSHEASDLFPNRSGSRFLADEDREPGSSASSDTEEDSLPANKCKKEIMVGPQFQADLSNLHLNRHCEKIYENEDQLLWDPSVLPEREVEEFLYRAVKRRWHEMAGPQLPEGEAVKDSEQALYELVKCNFNVEEALRRLRFNVKVIRDGLCAWSEEECRNFEHGFRVHGKNFHLIQANKVRTRSVGECVEYYYLWKKSERYDYFAQQTRLGRRKYVPSGTTDADQDLDGSDPDGPGRPRPEQDTLTGMRTDPLSVDGTAGGLDEPGVASDGLPSSEPGPCSFQQLDESPAVPLSHRPPALADPASYQPAVTAPEPDASPRLAVDFALPKELPLISSHVDLSGDPEETVAPAQVALSVTEFGLIGIGDVNPFLAAHPTCPAPGLHSEPLSHCNVMTC

From publication PMC5207708
